Measured values reported in publication PMC4336329 (PLoS ONE, 2015).
The whole screen tested about 310,000 compounds, of which about 2,200 (0.71%) showed an effect of 50% or more. Effects have a minus sign here. This is one part of the list.

The compounds below were run against human ether-à-go-go-related gene (hERG) potassium channel (human, UniProt Q12809) (assay: primary screen, population patch clamp on CHO cells stably expressing hERG).
human ether-à-go-go-related gene (hERG) potassium channel, sequence (Q12809 whole entry, looked up): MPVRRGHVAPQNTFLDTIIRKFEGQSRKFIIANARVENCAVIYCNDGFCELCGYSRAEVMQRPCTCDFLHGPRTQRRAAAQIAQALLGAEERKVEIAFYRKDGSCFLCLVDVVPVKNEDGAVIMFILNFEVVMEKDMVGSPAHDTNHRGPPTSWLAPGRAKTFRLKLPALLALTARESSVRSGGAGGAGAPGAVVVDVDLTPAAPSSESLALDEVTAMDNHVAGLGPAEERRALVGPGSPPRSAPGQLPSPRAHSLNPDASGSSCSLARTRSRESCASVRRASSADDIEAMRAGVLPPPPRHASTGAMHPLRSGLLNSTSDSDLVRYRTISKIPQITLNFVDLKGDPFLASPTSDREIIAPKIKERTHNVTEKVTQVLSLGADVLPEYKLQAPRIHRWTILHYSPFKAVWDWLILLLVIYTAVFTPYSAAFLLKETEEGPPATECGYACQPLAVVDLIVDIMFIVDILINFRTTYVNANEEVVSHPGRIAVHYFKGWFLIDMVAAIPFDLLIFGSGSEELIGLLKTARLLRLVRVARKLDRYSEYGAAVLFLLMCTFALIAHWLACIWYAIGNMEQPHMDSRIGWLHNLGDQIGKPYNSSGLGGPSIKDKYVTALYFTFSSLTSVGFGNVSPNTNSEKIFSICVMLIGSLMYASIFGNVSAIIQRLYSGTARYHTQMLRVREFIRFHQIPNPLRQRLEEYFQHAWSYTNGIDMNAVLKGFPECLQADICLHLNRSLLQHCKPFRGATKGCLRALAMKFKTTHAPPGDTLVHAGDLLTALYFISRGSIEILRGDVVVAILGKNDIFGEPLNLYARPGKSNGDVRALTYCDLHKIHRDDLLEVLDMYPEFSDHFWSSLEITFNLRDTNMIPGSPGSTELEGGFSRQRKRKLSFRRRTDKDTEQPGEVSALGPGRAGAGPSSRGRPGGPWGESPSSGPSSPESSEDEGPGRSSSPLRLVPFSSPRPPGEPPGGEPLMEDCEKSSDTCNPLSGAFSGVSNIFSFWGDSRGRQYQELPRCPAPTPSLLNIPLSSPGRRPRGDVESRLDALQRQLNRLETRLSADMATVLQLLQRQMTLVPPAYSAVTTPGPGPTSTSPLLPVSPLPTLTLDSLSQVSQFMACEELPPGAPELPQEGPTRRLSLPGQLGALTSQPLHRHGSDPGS

Row | SMILES | hERG current change (%, negative = inhibition) at 1uM [%]
1 | COc1cccc(C=NCCNC(=O)c2nonc2N)c1O | 11.4
2 | COc1cc(C(=O)N/N=C/c2ccc(OC(=O)c3ccccc3Cl)c(OC)c2)ccc1O | 12.8
3 | O=C(Nc1nccs1)c1cn(-c2ccccc2)nc1-c1ccccc1 | -3.21
4 | Br.CC(=O)Nc1ccc(-c2csc(N/N=C(/C)c3ccccc3)n2)cc1 | 12.4
5 | CCn1c(=O)c(C(=O)CN2CCN(Cc3ccc4c(c3)OCO4)CC2)c(N)n(Cc2ccccc2)c1=O | -67.4
6 | Cc1ccc(-c2csc(NC(=O)CSc3nc(C)cc(=O)[nH]3)n2)cc1 | 7.59
7 | CC(C)NC(=O)C(OC(=O)c1ccccc1)C(OC(=O)c1ccccc1)C(=O)O (centres unmarked) | 8.39
8 | CC(C)C(c1nnnn1Cc1ccco1)N1CCC(C(N)=O)CC1 (centres unmarked) | 9.29
9 | O=C(C#Cc1ccccc1)Nc1cccc(F)c1 | 7.19
10 | CCCc1cc(=O)[nH]c(SCC)n1 | 6.87
11 | O=C(Cc1cccs1)N1CCN(c2nc(-c3ccc(Cl)cc3)cs2)CC1 | -6.46
12 | CN(c1ccccc1C(=O)NCc1ccco1)S(C)(=O)=O | 14.3
13 | COc1cc(Cl)c(C)cc1N1C(=O)CN(Cc2ccccc2)C1=S | 11.8
14 | CC(C)C[C@H](NC(=O)C1CC(=O)N(c2ccc(F)cc2)C1)C(=O)N1CCCCC1 (some centres unmarked) | 3.74
15 | Cc1cc(=O)oc2cc(OCC(=O)Nc3nnc(C4CC4)s3)ccc12 | 7.3
16 | CC(=O)c1ccc(-c2ccc(C(=O)NC3CCCCCC3)o2)cc1 | 29.5
17 | Nc1nnc(SCc2ccc(F)cc2Cl)s1 | 5.16
18 | CC1CCN(C(=O)CN2C(=O)C(C)(C)Oc3ccc(C(=O)NC4CCCC4)cc32)CC1 | 8.66
19 | O=c1[nH]c(=O)n(C2CCCCC2)c(O)c1/C=C/C=Nc1ccccc1 | 12.4
20 | CC1(C)CC(=O)C(C(c2ccc(Br)cc2)C2C(=O)CC(C)(C)CC2=O)C(=O)C1 | 10.5
21 | CC1CCN(CC(O)Cn2c3ccccc3c3ccccc32)CC1 (centres unmarked) | 8.86
22 | COc1c2ccccc2c(OC)c2ccccc12 | 6.1
23 | Cc1ccc(C2C(=O)c3ccccc3C2=O)cc1 | 11.2

Row | SMILES | hERG current change (%, negative = inhibition) at 1uM [%]
24 | O=C(COC(=O)Cc1ccccc1)Nc1cccnc1Cl | 6.4
25 | COc1cc(C(=S)N2CCOCC2)ccc1OC(=O)c1cccc(C)c1 | 8.75
26 | Cc1cc(C(=O)NNC(=O)c2sccc2C)c(C)o1 | 14.2
27 | COC(=O)N1C(=O)[C@](c2ccccc2)(C2CCCCC2)N1C(=O)OC | 10.6
28 | COCCn1c(SCC(=O)Nc2ccccc2C)nc2c(oc3ccccc32)c1=O | 10.3
29 | CC1CCCN(S(=O)(=O)c2cnc[nH]2)C1 (centres unmarked) | 16.6
30 | Cc1ccc(/C=N/NC(=O)C(c2ccncc2)N2CCOCC2)cc1 (centres unmarked) | 19.6
31 | CC(NC(=O)OCc1ccccc1)C(=O)NCC1CCCO1 (centres unmarked) | 15.2
32 | CC(/C=C/c1ccccc1)=N\Nc1nc2c(c(=O)[nH]c(=O)n2C)n1CCO | 13.1
33 | CSCC(=O)N1CCc2ccc(NC(=O)c3ccccc3Cl)cc2C1 | 11.5
34 | CC1(C)Oc2ccc3ccc(=O)oc3c2C(/C=N/O)=C1Cl | 13.5
35 | CC(C)N(C(=O)Cn1cc(SCC(=O)N2CCCC2)c2ccccc21)C(C)C | -2.17
36 | CC(C)N(Cc1nc(-c2ccccc2)no1)C(=O)CN1C(=O)c2ccccc2C1=O | -9.32
37 | COc1ccc2c(c1)OC[C@H]1[C@H]2N2C(=O)CN(Cc3ccco3)C(=O)[C@@]2(C)[C@H]1c1ccccc1 | 21.2
38 | CC(=O)N(CCCCN1C(=O)c2ccccc2C1=O)c1ccc(C)cc1 | -4.21
39 | Oc1cccc(/C=N/N2CCN(C3c4ccccc4-c4ccccc43)CC2)c1 | 14.6
40 | O=C(CSc1ccc2nnc(-c3ccc(F)cc3)n2n1)N1CCCc2ccccc21 | 1.84
41 | CCn1cc(/C=C(\NC(=O)c2ccccc2F)C(=O)NCCCN2CCOCC2)c2ccccc21 | 1.87
42 | CCN(CC)S(=O)(=O)c1cc(NC(=O)C(C)N(C)CC(=O)Nc2c(C)cccc2C)ccc1C (centres unmarked) | 3.31
43 | CC(NS(=O)(=O)c1ccc(OCC(=O)NCc2cccnc2)cc1)c1ccccc1 (centres unmarked) | 10.6
44 | C#CCOCCOCCOCCNc1nc(N2CCN(C(=O)[C@H](CCC(=O)O)n3cc(C(N)Cc4ccc(O)cc4)nn3)CC2)nc(N2CCN(C(=O)[C@H](Cc3cc4ccccc4[nH]3)n3cc(C(N)CC(C)C)nn3)CC2)n1.Cl (some centres unmarked) | 7.46
45 | O=C(NC1CCCCCC1)c1ccc(Cl)c(S(=O)(=O)N2CCOCC2)c1 | -7.39
46 | COc1cccc(CC(NC(C)=O)C(=O)NC2CCN(c3ncccc3[N+](=O)[O-])CC2)c1 (centres unmarked) | 18.6

Row | SMILES | hERG current change (%, negative = inhibition) at 1uM [%]
47 | COC(=O)c1ccc(COC(=O)c2cc3ccccc3oc2=O)cc1 | 16.1
48 | COc1ccc(C2(c3ccc(OC)cc3)NC(=O)N(CC(=O)Nc3ccccc3C(F)(F)F)C2=O)cc1 | 15.7
49 | Cc1cc(C)cc(C(=O)Nc2ccncc2)c1 | 14.2
50 | CC(C)OCCCNC(=O)c1c(N)n(/N=C/c2ccccn2)c2nc3ccccc3nc12 | 9.45
51 | COc1cccc(CNC(=O)C2CC(=O)N(C3CCCCC3)C2)c1 (centres unmarked) | 17
52 | COc1ccc(OCC(=O)Nc2ccc(Cl)cc2)cc1 | 10.5
53 | O=C(/C=C/c1ccc(S(=O)(=O)N2CCOCC2)cc1)OCC(=O)c1ccc([N+](=O)[O-])cc1 | -3.49
54 | Cc1ccc(N2C(=O)N(CC(=O)N(C)Cc3ccccc3)C(=O)C2C)cc1 (centres unmarked) | -16.6
55 | CCOC(=O)N1CCC(NC(=O)c2ccc(CS(=O)(=O)c3ccc(OC)cc3)o2)CC1 | -5.9
56 | CCOc1ccc(C(=O)NCC(=O)OCC(=O)NC2CCCC2)cc1 | 10.5
57 | CCc1ccc(/C(C)=N/NC(=O)c2ccccn2)cc1 | 13.5
58 | CCN(CC)CCn1c2c(c(SCC(=O)Nc3nc4ccc(C)cc4s3)nc1=O)CCC2 | -4.65
59 | CCOc1ccc2nc(N=Nc3c(O)[nH]c(=O)[nH]c3=O)sc2c1 | 7.48
60 | O=C(O)C(=O)O.c1ccc(CC2CCN(Cc3ccccn3)CC2)cc1 | 8.66
61 | COCCNC(=O)c1cc(-c2cccs2)on1 | 7.96
62 | COC(=O)c1cccc(NC(=O)C2COc3ccccc3O2)c1C (centres unmarked) | 7.5
63 | Cc1cc(OCC(=O)NC(C)(C)C)ccc1Cl | 10
64 | O=C1c2ccccc2NC2CCCCCN12 (centres unmarked) | 9.7
65 | Cc1ccc2nc(SCC(=O)N/N=C/c3ccc(C(=O)O)cc3)cc(C)c2c1 | 2.7
66 | c1ccc2c(Cn3ccnc3)cccc2c1 | 13.3
67 | COCCCNc1ncnc2sc3c(c12)CCC(C)C3 (centres unmarked) | 7.13
68 | CCNS(=O)(=O)c1ccc(NC(=O)c2cccnc2)cc1 | 12.5
69 | Cc1nc2ccccc2n1CC(=O)N/N=C\C=C\c1ccccc1 | 12.1

Row | SMILES | hERG current change (%, negative = inhibition) at 1uM [%]
70 | CCc1[nH]nc(C(=O)NC2CCCN(Cc3ccccc3F)C2)c1C (centres unmarked) | 7.17
71 | COc1cccc(OC)c1C(=O)Nc1ccnn1C | -75.9
72 | Cc1ccc(NC(=O)N(CCCN2CCOCC2)Cc2cccs2)cc1C | -6.45
73 | CNC(=O)COC(=O)c1cc(SC)ccc1Cl | 13.9
74 | Cc1c(Cl)cccc1NC(=O)c1cc(-c2ccco2)on1 | 9.28
75 | COc1ccc2[nH]c(C)c(CCNC(=S)Nc3ccc(C)cc3)c2c1 | 9.92
76 | Cn1c(NCCCO)nc2c(c1=O)C1(CCCCC1)Cc1ccccc1-2 | -3.36
77 | O=C(NCC(c1cccnc1)N1CCN(c2ccc(F)cc2)CC1)c1ccc(F)cc1 (centres unmarked) | -15.4
78 | CC(=O)Nc1cc(Cl)ccc1OS(=O)(=O)c1ccc(C)cc1 | 6.92
79 | CCCCNCc1cccn1-c1ccccc1.O=C(O)C(=O)O | 14.1
80 | S=C(NCCc1ccccc1)N1CCN(C(c2ccccc2)c2ccccc2)CC1 | 2.21
81 | CN(C)c1cc(-c2ccc([N+](=O)[O-])cc2)oc(=O)c1Cl | 2.91
82 | O=C(Nc1ccc(Nc2ccccc2)cc1)Nc1ccccc1Cl | 7.45
83 | COc1cccc(CN2CCN(c3ncccn3)CC2)c1OC | 10
84 | COc1ccc(NS(=O)(=O)c2cc(C)ccc2NC(=O)c2cc(C)oc2C)cc1 | 6.11
85 | COc1cccc(CC(=O)OCC(=O)NNC(=O)c2ccc([N+](=O)[O-])cc2)c1 | 1.8
86 | CCc1cccc(NC(=O)CCC(=O)O)c1 | -4.13
87 | CSc1cccc(NC(=S)N(Cc2ccccc2)Cc2ccccn2)c1 | 3.13
88 | O=c1c2c3c(sc2ncn1/N=C/c1ccncc1)CCCC3 | 18.4
89 | Cc1cc(C(=O)CCl)c(C)n1CCc1ccc(Cl)cc1 | 21.6
